Measurements from a collection of fitness landscapes (doi:10.1016/j.celrep.2020.107928).
Over roughly 81,000 sequences, “one-hybrid fitness for binding parS DNA” has its median near -0.17; the highest 2% begin near 0.51. Some of the results follow.

B1: Caulobacter ParB omega fusion; a variant is named by its letters at X, in order, B8GW30 (parent)
chain: MESVVVGEPGMSEGRRGLGRGLSALLGEVDAAPAQAPGEQLGGSREAPIEILQRNPDQPRRTFREEDLEDLSNSIREKGVLQPILVRPSPDTAGEYQIVAGERAWRAAQRAGLKTVPIMVRELDDLAVLEIGIIENVQRADLNVLEEALSYKVLMEKFERTQENIAQTIGKSXSHVANXMRLLXLPDEVQSYLVSGELTAXHARAIAAAADPVALAKQIIEGGLSVRETEALARKAPNLSAGKSKGGRPPRVKDTDTQALESDLSSVLGLDVSIDHRGSTGTLTITYATLEQLDDLCNRLTRGI

Variants of: B1
Experiment: one-hybrid fitness for binding parS DNA (scaled: cognate 1, non-cognate 0); higher = stronger binding
Details: with parS DNA site
Outline: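 Fitness here means the log change in variant-to-wild-type read ratio between plasmids sequenced before and after selection. That scale was set so cognate equals 1 and non-cognate equals 0. The selection was a bacterial one-hybrid screen of Caulobacter ParB libraries, four specificity codons randomised, in E. coli USO carrying a HIS3 reporter with the site 19 bp from the promoter, grown 48 hours at 37°C on M9-minus-histidine with 0.1 mM IPTG and 5 mM 3-AT.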

one-hybrid fitness for binding parS DNA, 0.344:
RCMM

one-hybrid fitness for binding parS DNA, ≤ 0.2:
RYIK
DKLP
GALK
IVDI
YIVR
CIQT
HSLI
ARVA
IETA
TGKA
IKAI
NCSK
FETL
HMRR
SFRY
QPLR
RIWR
LPFR
RDMD
KRHG
HRVI
KTSF
EAKN
CQNR
CECG
QIRY
THVQ
AQPD
ACTR
VPLR
VGTC
VYTN
QMAW
RSSH
QMPM
HMLH
GYEC
CNTI
RTHP
LTHV
HPMG
KPKA
DIHG
YMYT
NNYA
TYEK
DLAL
QHSD
PTPN
RNGH
QMKC
TCKG
QTII
LLAD
LETR
AHHN
TPLQ
NVSI
PCQI
QLSR
RYNK
GLQR
KPDG
TAIL
NRET
QLQE
IAAR
FPAQ
EMSE
VTVW
TWMC
PAQI
VRIG
EANS
SCAT
HEYR
TPND
CPMK
TIRQ
SFSI
QAHW
GDCR
YTIS
ALLA
QDRR
VLSY
MSTV
QGSD
HRYA
HYLS
PSFG
RLHD
PRMA
FSEG
VWPF
TICW
RVFR
QVQS
TRKD
AQSI
KYPR
MLFL
LFPK
KHHG
KTVR
CKVG
KAIL
VLAL
GVNS
HDTK
TRVD
EVGG
SLMN
WTWG
TLMN
KVVC
FNLS
RGPN
NGST
LGIE
SKMI
PVRW
KVNS
KFPL
PWSF
FTNG
TDSC
LMVT
YLGP
QVFS
ACCY
RKYV
SRCS
TCNE
CWSR
RFAH
TTDI
RYDV
QPVC
WSVT
LYKW
YHDS
CHIP
PWIN
HKCR
VGRC
LRVL
SLHN

one-hybrid fitness for binding parS DNA, 0.876:
RWAS

one-hybrid fitness for binding parS DNA, 0.342:
RLWM

one-hybrid fitness for binding parS DNA, 0.396:
RIDY

one-hybrid fitness for binding parS DNA, 0.87:
RFCC
